In paper PMC5836133 one finds binding signal data, which are given here for 94 sequences.

Some of the results follow. At the low end of the ranking, values are background and their order means little.

For the assay, the system named is T1, GST-NbGlk1(82-244).
T1 sequence: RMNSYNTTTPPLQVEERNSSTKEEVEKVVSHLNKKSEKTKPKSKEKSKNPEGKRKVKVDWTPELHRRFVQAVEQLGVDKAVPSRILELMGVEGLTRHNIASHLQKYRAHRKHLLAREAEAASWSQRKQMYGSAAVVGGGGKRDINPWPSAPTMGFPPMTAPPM
The experiment in a line: protein-binding microarray.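 Further: rank-based score ranging −0.5 to +0.5 with E above 0.45 taken as significant binding.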 The settings on record: NbGlk1 is a Golden2-like transcription factor of Nicotiana benthamiana; high values mean tight binding; most listed sequences are background and not binding sites; double strand, one strand shown.
In turn, AGTTGTTA showed a binding signal of 0.108 E-score.

Take AGAACTTA: the binding signal was -0.0216 E-score.

On to AGCGGCAT, for which the binding signal was -0.218 E-score.

As for ATACGTCG, the binding signal came to 0.0921 E-score.

For AAATCAAG, the binding signal turned out to be 0.318 E-score.

On to ATGGATCC, for which the binding signal turned out to be 0.164 E-score.

On to AGAGAGGA, for which the binding signal came to 0.00572 E-score.

The sequence CAGACTGA displayed a binding signal of -0.0507 E-score.

For the sequence AAAGGACG, the binding signal is -0.0719 E-score.

With ACATTTAC, the binding signal amounted to 0.0766 E-score.

AACCCTGC had a binding signal of -0.127 E-score.

Turning to ATGTCTTA, the binding signal was -0.0318 E-score.

AGCGATTG displayed a binding signal of 0.168 E-score.

Turning to AGGGGGCC, the binding signal was -0.192 E-score.

AGACCTTA gave a binding signal of -0.192 E-score.

AGACGCTA: the binding signal is -0.126 E-score.

AATGACTC returned a binding signal of 0.00883 E-score.

Consider CAAAGTCC, for which the binding signal is -0.242 E-score.

AAGCGCCC gave a binding signal of -0.26 E-score.

In turn, CAAATGAC had a binding signal of 0.0196 E-score.

AAAGCCGC: the binding signal was -0.215 E-score.

As to CACACAGC, the binding signal was -0.0626 E-score.

CACAAAGC showed a binding signal of -0.0957 E-score.

AAGCAGTA: the binding signal was 0.0483 E-score.

CAACTTAG gave a binding signal of -0.0454 E-score.

ATCCACCC: the binding signal is 0.255 E-score.

As to ACATGTTA, the binding signal was -0.0491 E-score.

Sequence AAGCTACT yielded a binding signal of -0.233 E-score.

CACTGGGG displayed a binding signal of -0.216 E-score.

Sequence AGGAGTTG returned a binding signal of -0.0633 E-score.

As to AACCGAGC, the binding signal was -0.253 E-score.

AAACGGTC showed a binding signal of -0.179 E-score.

AGGAACTC: the binding signal is -0.282 E-score.

AGATACTC: the binding signal came out at 0.368 E-score.

AATTTTAC came in with a binding signal of 0.105 E-score.

The sequence AGTCATAT displayed a binding signal of 0.0488 E-score.

In the case of ATAGGGGA, the binding signal was -0.116 E-score.

In turn, AATTTGAT returned a binding signal of 0.119 E-score.

For AGAGAGGG, the binding signal is -0.185 E-score.

ATACCCAA: the binding signal stood at 0.129 E-score.

For the sequence AGGGTGAT, the binding signal is -0.0791 E-score.

With ACACGTGC, the binding signal was -0.165 E-score.

Sequence ATCGCGCA yielded a binding signal of 0.358 E-score.

In turn, ATCCCTAA had a binding signal of 0.189 E-score.

Regarding ATCGGTCG, the binding signal was 0.0893 E-score.

CAAAATCC gave a binding signal of 0.42 E-score.

The sequence AGGACAAT returned a binding signal of 0.145 E-score.

Sequence ATTTTCAA gave a binding signal of 0.262 E-score.

Regarding CAGCGACG, the binding signal is -0.142 E-score.

Sequence AACGTCCC registered a binding signal of -0.205 E-score.

For the sequence AGGCATGG, the binding signal was -0.0963 E-score.

Sequence ATTGCGTA came in with a binding signal of 0.367 E-score.

Consider AACTCGAA, for which the binding signal was -0.0283 E-score.

ATGGTATC yielded a binding signal of 0.2 E-score.

AGCATAAT came in with a binding signal of 0.196 E-score.

For AAACAACC, the binding signal was -0.0547 E-score.

In the case of ATGCTGCC, the binding signal was -0.174 E-score.

AGGTGTGC had a binding signal of -0.232 E-score.

The sequence AATCAATT gave a binding signal of 0.213 E-score.

ACCGTCTC displayed a binding signal of -0.204 E-score.

ATGCCTCA returned a binding signal of -0.0557 E-score.

In turn, ACCTTCTG showed a binding signal of -0.177 E-score.

AAGTAAGA returned a binding signal of 0.0937 E-score.

For AGTTCATC, the binding signal was -0.193 E-score.

With AACGCGGC, the binding signal was -0.137 E-score.

Regarding ATCATAGA, the binding signal turned out to be 0.214 E-score.

As for AATTAAGG, the binding signal was determined as 0.086 E-score.

Sequence AAATGATC returned a binding signal of -0.0232 E-score.

The sequence ATACAGTA displayed a binding signal of 0.138 E-score.

The sequence CAGAAAGC returned a binding signal of -0.168 E-score.

Regarding AATGCCAT, the binding signal is -0.146 E-score.

With AGGGCTTG, the binding signal is -0.297 E-score.

In the case of CAAGCACA, the binding signal is -0.187 E-score.

The sequence ATCTTTCG showed a binding signal of 0.194 E-score.

Sequence ACTCTCAG came in with a binding signal of -0.154 E-score.

ACAAAGGT displayed a binding signal of -0.178 E-score.

Sequence ACGGCGAT registered a binding signal of 0.07 E-score.

With AACGCCTC, the binding signal is -0.114 E-score.

Regarding ACTTGTTC, the binding signal was -0.174 E-score.

Sequence ACGCGTTC gave a binding signal of -0.158 E-score.

On to CAATTCTG, for which the binding signal stood at 0.11 E-score.

Sequence ACTCTTTA yielded a binding signal of 0.0474 E-score.

For the sequence AGCCCTCA, the binding signal was -0.216 E-score.

Consider CACAAAGG, for which the binding signal is -0.0927 E-score.

Sequence AGCGCAAT displayed a binding signal of 0.303 E-score.

With CACAGTGC, the binding signal was -0.191 E-score.

With CAGCATGA, the binding signal is -0.122 E-score.

Regarding AACCTTTG, the binding signal is -0.0599 E-score.

Take ATCCCTGG: the binding signal worked out at 0.0692 E-score.

Sequence AGCGAATC gave a binding signal of 0.459 E-score.

AGGTTCGG registered a binding signal of -0.046 E-score.

ACTAACTG showed a binding signal of -0.0666 E-score.

Sequence ACGCGAAC yielded a binding signal of 0.000953 E-score.

The sequence ACGCCCTA registered a binding signal of -0.119 E-score.
